# From patent US20170305996A1 (KOREA PRIME PHARM, published 2017)
# T1: VEGF-A121 (UniProt P15692-9 27-147)
# T1 construct: Bought from R&D systems; also called VEGF121
# T1 sequence (looked up): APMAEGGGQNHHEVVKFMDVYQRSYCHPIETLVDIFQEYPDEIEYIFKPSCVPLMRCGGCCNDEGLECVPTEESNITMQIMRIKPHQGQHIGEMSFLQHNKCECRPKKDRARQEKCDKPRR
# T2: PIGF (placental growth factor) (UniProt P49763-2 21-149, limits assumed)
# T2 construct: also called PLGF; placenta growth factor
# T2 sequence (looked up): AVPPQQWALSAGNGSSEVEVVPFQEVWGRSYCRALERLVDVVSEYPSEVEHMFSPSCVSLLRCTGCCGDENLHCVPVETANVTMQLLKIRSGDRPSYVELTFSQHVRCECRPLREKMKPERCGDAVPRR
# T3: VEGF-A165 (UniProt P15692-4 27-191)
# T3 construct: Bought from R&D systems; also called VEGF165
# T3 sequence (looked up): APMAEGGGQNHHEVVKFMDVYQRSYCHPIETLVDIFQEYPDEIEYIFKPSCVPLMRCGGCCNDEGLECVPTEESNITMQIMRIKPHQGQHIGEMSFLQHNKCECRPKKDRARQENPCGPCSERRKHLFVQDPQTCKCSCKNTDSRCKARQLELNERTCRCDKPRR
# B1: KP-VR2 (VEGFR fusion protein: two human VEGFR1 domain2 fused in sequence to each heavy chain of human IgG1 Fc domain) (Fc fusion)
# chain: SDTGRPFVEMYSEIPEIIHMTEGRELVIPCRVTSPNITVTLKKFPLDTLIPDGKRIIWDSRKGFIISNATYKEIGLLTCEATVNGHLYKTNYLTHRQTNTIISDTGRPFVEMYSEIPEIIHMTEGRELVIPCRVTSPNITVTLKKFPLDTLIPDGKRIIWDSRKGFIISNATYKEIGLLTCEATVNGHLYKTNYLTHRQTNTIIA[human IgG1 Fc skipped]
# notes: also called the fusion protein of the present invention
# B2: KP-VR4 (aflibercept): human VEGFR1 domain 2 and VEGFR2 domain 3 fused to human IgG1 Fc domain (Fc fusion)
# chain: SDTGRPFVEMYSEIPEIIHMTEGRELVIPCRVTSPNITVTLKKFPLDTLIPDGKRIIWDSRKGFIISNATYKEIGLLTCEATVNGHLYKTNYLTHRQTNTIIDVVLSPSHGIELSVGEKLVLNCTARTELNVGIDFNWEYPSSKHQHKKLVNRDLKTQSGSEMKKFLSTLTIDGVTRSDQGLYTCAASSGLMTKKNSTFVRVHEKA[human IgG1 Fc skipped]
# notes: The number of copies follows the Fc dimer described for the constructs; also called VEGF-Trap; Eylea
# What was measured:
# VEGF-A121 [1] = molecular target: T1, VEGF-A121; test: ELISA, maximum binding, against aflibercept
# [2] = molecular target: T2, PIGF (placental growth factor); test: ELISA, maximum binding, against aflibercept
# VEGF-A165 [3] = molecular target: T3, VEGF-A165; test: ELISA, maximum binding, against aflibercept
# VEGF-A165 [4] = molecular target: T3, VEGF-A165; test: cell-based or functional assay
# VEGF-A121 [5] = molecular target: T1, VEGF-A121; test: ELISA, maximum binding (Example 4)
# [6] = molecular target: T2, PIGF (placental growth factor); test: ELISA, maximum binding (Example 4)
# VEGF-A165 [7] = molecular target: T3, VEGF-A165; test: ELISA, maximum binding (Example 4)
increase of Bmax against aflibercept (VEGF-A121 [1]),increase of Bmax against aflibercept [2],increase of Bmax against aflibercept (VEGF-A165 [3]),endothelial cell migration inhibition rate IC50 (nM); HUVEC Transwell invasion assay with VEGF 350 ng/ml (VEGF-A165 [4]),Bmax (OD) (VEGF-A121 [5]),Bmax (OD) [6],Bmax (OD) (VEGF-A165 [7]),Binder
44.8%,54.3%,54.4%,11 nM,2.1 OD,3.42 OD,1.93 OD,B1
–,–,–,20.1 nM,1.45 OD,2.21 OD,1.25 OD,B2
